Experimental findings from the antibiotic and cytotoxicity screens of Wong et al. (2023) are described below.

Structures are written as SMILES. The list shows a part of the results.

The test system of one assay is HSkMC. Description: cytotoxicity call (relative viability < 0.9). Particulars: 10 µM.
In another assay the test system is HepG2. Description: cytotoxicity call (relative viability < 0.9). Particulars: 10 µM.
Another assay has as its system S. aureus RN4220. Put plainly: growth inhibition call (relative growth <= 0.2). Particulars: 50 µM.

`C[C@@H](O)CC(C)(C)O`: the cytotoxicity call in the assay on HSkMC and in the assay with HepG2 was “inactive” throughout. The growth inhibition call in the assay on S. aureus RN4220 was “inactive”.
Regarding `O=C1N(Cc2ccccc2)Cc2ccccc2[C@H]2OC(c3ccc(OCCCO)cc3)=N[C@@]12CCS(=O)(=O)c1ccccc1`, the cytotoxicity call in the assay on HSkMC and in the assay with HepG2 was “inactive” in each case. Also, the growth inhibition call with S. aureus RN4220 is “inactive”.
Take `C[C@@H]1CN([C@@H](C)CO)C(=O)c2cccc(NC(=O)c3cnccn3)c2O[C@H]1CN(C)Cc1ccncc1`: the cytotoxicity call in the assay with HSkMC and with HepG2 was “inactive” in each case. Besides, in the assay on S. aureus RN4220, the growth inhibition call is “inactive”.
`COc1ccc(NC(=O)N(C)C[C@H]2Oc3ccc(NC(=O)CCCN(C)C)cc3C(=O)N([C@H](C)CO)C[C@H]2C)cc1`: the cytotoxicity call with HSkMC and in the assay on HepG2 was “inactive” in each case. Besides, the growth inhibition call with S. aureus RN4220 was “inactive”.
In the case of `COc1ccc(NC(=O)N(C)C[C@H]2OCCCC[C@H](C)Oc3ccc(NC(=O)Nc4cccc5ccccc45)cc3C(=O)N([C@H](C)CO)C[C@@H]2C)cc1`, the cytotoxicity call in the assay with HSkMC and in the assay on HepG2 was “inactive” throughout. Besides, the growth inhibition call in the assay with S. aureus RN4220 is “inactive”.
As for `C[C@H]1CN([C@@H](C)CO)C(=O)Cc2cc(NC(=O)Nc3ccc4c(c3)OCO4)ccc2O[C@H]1CN(C)Cc1ccc(C(F)(F)F)cc1`, the cytotoxicity call in the assay with HSkMC is “inactive”. Also, the cytotoxicity call in the assay with HepG2 was “active”. Further, the growth inhibition call with S. aureus RN4220 was “inactive”.
With `C[C@H](N[P@@](=O)(OC[C@H]1O[C@@H](n2ccc(N)nc2=O)C(F)(F)[C@@H]1O)Oc1ccccc1)C(=O)OCc1ccccc1`, the cytotoxicity call in the assay on HSkMC and with HepG2 was “inactive” throughout. In addition, the growth inhibition call in the assay on S. aureus RN4220 is “inactive”.
`C[C@H]1CN([C@@H](C)CO)C(=O)c2cc(NC(=O)CCCCCC(=O)Nc3ccccc3N)ccc2O[C@H]1CN(C)C(=O)Nc1ccccc1`: the cytotoxicity call with HSkMC and with HepG2 was “inactive” in each case. The growth inhibition call in the assay on S. aureus RN4220 is “inactive”.
Turning to `CO[C@H]1CN(C)C(=O)c2ccc(NC(C)=O)cc2OC[C@@H](C)N(S(=O)(=O)c2cn(C)cn2)C[C@@H]1C`, the cytotoxicity call in the assay with HSkMC and with HepG2 was “inactive” throughout. In the assay with S. aureus RN4220, the growth inhibition call is “inactive”.
For `COC(=O)[C@@H](N)CS[C@H]1CCCCO1`, the cytotoxicity call in the assay with HSkMC and in the assay on HepG2 was “inactive” throughout. The growth inhibition call in the assay on S. aureus RN4220 was “inactive”.
For `CC(=O)N=c1sc(S(N)(=O)=O)nn1C`, the cytotoxicity call with HSkMC and in the assay on HepG2 was “inactive” in each case. In addition, in the assay with S. aureus RN4220, the growth inhibition call was “inactive”.
For the compound `COc1cccc(S(=O)(=O)N(C)C[C@H]2Oc3ncc(C#CC(C)C)cc3C(=O)N([C@@H](C)CO)C[C@@H]2C)c1`, the cytotoxicity call with HSkMC and in the assay on HepG2 was “inactive” throughout. In addition, in the assay with S. aureus RN4220, the growth inhibition call was “inactive”.
As for `CN(C)CCCSC(=N)N`, the cytotoxicity call with HSkMC and in the assay with HepG2 was “inactive” throughout. For the same compound, the growth inhibition call in the assay on S. aureus RN4220 was “inactive”.
As to `CC(C)(C)C(=O)OCOP(=O)(COCCn1cnc2c(N)ncnc21)OCOC(=O)C(C)(C)C`, the cytotoxicity call in the assay with HSkMC is “inactive”. Also, the cytotoxicity call in the assay with HepG2 was “active”. Moreover, the growth inhibition call in the assay with S. aureus RN4220 was “inactive”.
Consider `C=CCn1cnc2c1c(=O)[nH]c(=O)n2C`, for which the cytotoxicity call in the assay with HSkMC and in the assay on HepG2 was “inactive” each time. The growth inhibition call in the assay with S. aureus RN4220 is “inactive”.
Turning to `CS(=O)(=O)N1C[C@@H](O)COC[C@H]2O[C@H](CC(=O)NCCc3ccncc3)CC[C@@H]21`, the cytotoxicity call in the assay with HSkMC and in the assay on HepG2 was “inactive” throughout. The growth inhibition call with S. aureus RN4220 was “inactive”.
Regarding `C[C@@H]1CCCCO[C@H](CN(C)C(=O)Nc2ccccc2)[C@@H](C)CN([C@H](C)CO)C(=O)c2cc(NC(=O)c3ccccc3)ccc2O1`, the cytotoxicity call with HSkMC and with HepG2 was “inactive” each time. Further, the growth inhibition call with S. aureus RN4220 was “inactive”.
With `C[C@@H]1CN([C@@H](C)CO)C(=O)c2cccc(N(C)C)c2O[C@H]1CN(C)S(C)(=O)=O`, the cytotoxicity call with HSkMC and in the assay on HepG2 was “inactive” each time. For the same compound, in the assay on S. aureus RN4220, the growth inhibition call was “inactive”.
As for `COc1ccc(S(=O)(=O)Nc2ccc3c(c2)CC(=O)N([C@H](C)CO)C[C@H](C)[C@@H](CN(C)C(=O)NC(C)C)O3)cc1`, the cytotoxicity call in the assay on HSkMC and in the assay with HepG2 was “inactive” throughout. Moreover, the growth inhibition call with S. aureus RN4220 was “inactive”.
`C[C@H](CO)N1C[C@H](C)[C@H](CN(C)C(=O)C2CCCCC2)Oc2cc(C#Cc3ccncc3)ccc2S1(=O)=O`: the cytotoxicity call in the assay with HSkMC is “inactive”. Besides, the cytotoxicity call with HepG2 is “active”. The growth inhibition call in the assay on S. aureus RN4220 is “inactive”.
As for `COc1ccc(NC(=O)N(C)C[C@H]2OCCCC[C@@H](C)Oc3ccc(NC(=O)NC(C)C)cc3C(=O)N([C@H](C)CO)C[C@H]2C)cc1`, the cytotoxicity call in the assay on HSkMC and with HepG2 was “inactive” each time. In the assay on S. aureus RN4220, the growth inhibition call is “inactive”.
As to `O=C(Cc1ccccn1)NCC[C@H]1CC[C@@H](NC(=O)CN2CCOCC2)[C@@H](CO)O1`, the cytotoxicity call in the assay with HSkMC and in the assay on HepG2 was “inactive” in each case. Also, in the assay with S. aureus RN4220, the growth inhibition call is “inactive”.
Take `C[C@H](CO)N1C[C@H](C)[C@@H](CN(C)S(=O)(=O)c2ccc(Oc3ccccc3)nc2)OCc2cnnn2CCCC1=O`: the cytotoxicity call with HSkMC and in the assay on HepG2 was “inactive” each time. The growth inhibition call in the assay with S. aureus RN4220 is “inactive”.
In the case of `C[C@@H]1CN([C@@H](C)CO)S(=O)(=O)c2ccc(/C=C/c3ccccc3)cc2O[C@H]1CN(C)C(=O)CN1CCOCC1`, the cytotoxicity call with HSkMC and in the assay on HepG2 was “inactive” each time. The growth inhibition call in the assay with S. aureus RN4220 is “inactive”.
On to `CCN(CC)CCOc1ccc(Nc2ncc3cc(-c4c(Cl)cccc4Cl)c(=O)n(C)c3n2)cc1`, for which the cytotoxicity call with HSkMC and in the assay on HepG2 was “active” in each case. Besides, the growth inhibition call in the assay on S. aureus RN4220 was “inactive”.
As to `Cc1ccc(S(=O)(=O)Nc2ccc3c(c2)CC(=O)N([C@@H](C)CO)C[C@@H](C)[C@H](CN(C)Cc2ccncc2)O3)cc1`, the cytotoxicity call in the assay on HSkMC (human skeletal muscle cells) and with HepG2 was “inactive” in each case. Further, in the assay on S. aureus RN4220, the growth inhibition call was “inactive”.
Turning to `C[C@H](CO)N1C[C@H](C)[C@H](CN(C)C(=O)Nc2cccc3ccccc23)Oc2ncc(C#Cc3ccc(C(F)(F)F)cc3)cc2C1=O`, the cytotoxicity call in the assay with HSkMC and with HepG2 was “inactive” throughout. Moreover, in the assay with S. aureus RN4220, the growth inhibition call is “inactive”.
